# Laboratory results published in the supplement of paper PMC3334620.
# In all, about 33,000 sequences were measured (“E-score (-0.5 to 0.5)”: median about -0.021, highest 2% from about 0.32 on). The list shows a part of the results.
# Target: T1, Zap1 (UniProt P47043)
# T1 sequence: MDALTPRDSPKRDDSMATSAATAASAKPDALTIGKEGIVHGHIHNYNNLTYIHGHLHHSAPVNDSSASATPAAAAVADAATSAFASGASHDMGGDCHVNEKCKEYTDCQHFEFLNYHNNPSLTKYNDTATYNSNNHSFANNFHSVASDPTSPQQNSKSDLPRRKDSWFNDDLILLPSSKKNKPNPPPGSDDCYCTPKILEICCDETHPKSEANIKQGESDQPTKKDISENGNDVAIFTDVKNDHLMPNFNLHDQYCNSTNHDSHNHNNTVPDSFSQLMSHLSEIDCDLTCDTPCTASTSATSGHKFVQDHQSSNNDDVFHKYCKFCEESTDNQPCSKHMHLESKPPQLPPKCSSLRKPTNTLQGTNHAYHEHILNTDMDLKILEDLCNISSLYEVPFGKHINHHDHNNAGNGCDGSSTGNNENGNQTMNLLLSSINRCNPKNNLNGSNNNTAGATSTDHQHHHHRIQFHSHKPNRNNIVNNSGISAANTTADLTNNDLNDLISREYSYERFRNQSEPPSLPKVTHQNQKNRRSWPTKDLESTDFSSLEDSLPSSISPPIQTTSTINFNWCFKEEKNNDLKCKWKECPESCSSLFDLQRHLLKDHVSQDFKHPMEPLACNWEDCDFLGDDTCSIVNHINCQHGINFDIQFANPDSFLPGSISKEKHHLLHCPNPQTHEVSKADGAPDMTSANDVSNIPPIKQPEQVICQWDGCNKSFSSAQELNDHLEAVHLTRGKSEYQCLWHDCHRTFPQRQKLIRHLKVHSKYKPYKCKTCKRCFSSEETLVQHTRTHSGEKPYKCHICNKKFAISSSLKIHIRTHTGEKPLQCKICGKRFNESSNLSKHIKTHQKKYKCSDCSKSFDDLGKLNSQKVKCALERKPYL
# Assay: PBM E-score (8-mer binding enrichment) (E-score (-0.5 to 0.5)); higher = stronger / more preferred TF binding; most listed sequences are background and not binding sites
# Details: protein concentration: 200 nM; construct: GST-full length
# How it was run: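 Full-length yeast transcription factors or their DNA-binding domains, GST-tagged and expressed with PURExpress, were applied at about 100-200 nM to universal all-10-mer Agilent arrays. These arrays had been made double-stranded by primer extension on fresh or once-stripped slides. Detection used fluorescent anti-GST, normalisation used masliner, and E-scores for ungapped eight-base words pooled with reverse complements came from the Universal PBM Analysis Suite.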
row,Sequence,PBM E-score
1,CCGTATAA,0.124
2,ACGTTTTA,0.0733
3,GACTATAC,-0.0051
4,TACCTTAA,0.296
5,ACAAATAG,0.0187
6,CACCCCAA,0.17
7,CCCGTTTA,-0.0317
8,CCCTGCCA,-0.00313
9,CCAGGCAG,-0.216
10,AAATCGTT,0.00625
11,GGTATTGA,0.17
12,GCCTTTAC,0.133
13,AATACACT,-0.0206
14,GGTCTATA,0.117
15,AGTGGGCC,-0.203
16,AGTGCTTA,-0.163
17,GTTGGGCA,-0.206
18,CTTGCCAC,-0.132
19,GTGTAAAA,0.097
20,ATTTTAAA,0.0698
21,CTCCTATC,-0.243
22,ATGCGGGA,0.0072

row,Sequence,PBM E-score
1,AAGTAGGT,-0.0992
2,ACTGCAAG,-0.213
3,CCAGAGTA,0.111
4,CTGCCAGC,-0.181
5,CACTTATA,-0.0243
6,TCTTAGAA,0.0577
7,GGAGAGTA,-0.323
8,ACCATCGC,0.103
9,ACTTTTGA,0.0191
10,ACAATACG,-0.0827
11,CGACTTCA,-0.148
12,ACACACTG,0.00988
13,AGGATTGG,-0.0532
14,CCCAACCG,-0.00374
15,CACAAGTA,0.0203
16,AGAGATCG,-0.173
17,AACCGCTC,0.136
18,AGAAGCAA,-0.026
19,GCCTCGCA,-0.162
20,AATCCACT,0.0218
21,CTAAGGCC,-0.0342
22,CATGTAAG,0.104

row,Sequence,PBM E-score
1,CCGAGGAA,-0.152
2,ACGTGTCT,-0.25
3,ACGGTAGA,0.0354
4,CGGATGAG,-0.0667
5,AGACAACG,-0.0324
6,AATTATAC,0.164
7,AAAAGAGA,-0.0407
8,CCTACACA,0.0989
9,ACCCATCG,0.098
10,TCAGCTGA,0.0575
11,ACCATCCG,0.139
12,ATGAGCAG,-0.202
13,ACTTTGCG,-0.00562
14,ATGCCGGG,-0.202
15,GTTGCTTA,-0.061
16,CGAGTTTA,-0.0372
17,AACTTTGC,-0.0653
18,AACATCCG,-0.126
19,GCGTGTTA,-0.0471
20,CCACTTTA,0.126
21,CCCTAACG,0.275
22,AAACCGAA,0.114

row,Sequence,PBM E-score
1,CCAAATTA,0.268
2,CACTAAGG,0.27
3,ACACATAT,0.0633
4,CTGAGGTA,0.275
5,GCGTGATA,-0.0875
6,CAATGACC,0.308
7,AAAGTGCC,-0.224
8,GCTATTGA,-0.0678
9,CATTGTTC,0.12
10,AATAGCCG,-0.0763
11,ACTTCATA,-0.0147
12,CACGGATA,0.127
13,ACAGTGCA,-0.117
14,ACGGGCCC,-0.202
15,CGGACGAA,0.0663
16,GGACTTGA,-0.152
17,ATTCTTGG,0.0194
18,ATTAAACC,0.0845
19,ATCAATGA,0.136
20,AGACCCCT,0.183
